Values marked as one replicate rest on one cluster of the flow cell; about a third of the high ones do not repeat.
Tested on: ATP
Assay: switch fluorescence ratio, 500 uM ATP over buffer (Cy3 cluster intensity, sum of 5 cycles each) (fold (ratio)); higher = stronger signal-on switching upon ATP binding; sequences stand for … in TCGTCGGCAGCGTCAGATGTGTATAAGAGACAGTTTTTTTTTTTTTTTTTTTTTTTTT…TC
Details: aptamer strand: ATP DNA aptamer (quencher-CACCTGGGGGAGTATTGCGGAGGAAGG + anchor), 100 nM annealed; ATP concentration: 500 uM; one replicate
In short: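 Exposure to 500 uM ATP lasted 15 min at 22 °C before imaging, and a selection-buffer image was taken beforehand, for Cy3-labelled switching-strand clusters on a modified Illumina MiSeq flow-cell annealed to 100 nM quencher-labelled ATP aptamer. Five buffer/ATP cycles were run with NaOH stripping and re-annealing between them. The fluorescence ratio per cluster is summed target-cycle over summed buffer-cycle Cy3 intensity, averaged per switch-domain sequence. Clusters outside 100-1000 RFU were excluded.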

| Sequence | switch fluorescence ratio |
| --- | --- |
| CAGAGCTCAG | 1.05 |
| CAGAGGGTAT | 1.08 |
| CAGAGGTAAT | 1.18 |
| CAGAGGTTCT | 1 |
| CAGAGTCATG | 1.02 |
| CAGAGTCGGA | 1.03 |
| CAGAGTTAGC | 0.975 |
| CAGATAAC | 0.966 |
| CAGATAACCC | 0.984 |
| CAGATAGGCC | 1.02 |
| CAGATCAGTC | 1.02 |
| CAGATGGCGC | 0.991 |
| CAGATTCGCA | 1.01 |
| CAGCAAGGCT | 1.65 |
| CAGCAAGTTT | 1.08 |
| CAGCACAAT | 1.11 |
| CAGCACAGAC | 3.6 |
| CAGCACCATA | 1.13 |
| CAGCACGGGC | 1.03 |
| CAGCACGTTG | 0.988 |
| CAGCCAACGG | 0.995 |
| CAGCCAGACT | 1.14 |
| CAGCCAGGCT | 1.05 |
| CAGCCCTGGT | 1.08 |
| CAGCGGTAGA | 1.02 |

| Sequence | switch fluorescence ratio |
| --- | --- |
| CAGCGTAGGC | 0.994 |
| CAGCTACGAT | 1.07 |
| CAGCTAGGTA | 0.975 |
| CAGCTCCAGG | 1.49 |
| CAGCTTCTAT | 0.992 |
| CAGCTTGGAA | 1 |
| CAGCTTTTTT | 0.988 |
| CAGGACGCA | 1.55 |
| CAGGAGATTA | 1.01 |
| CAGGATAATT | 0.991 |
| CAGGATGCAA | 1.24 |
| CAGGATGCGG | 0.971 |
| CAGGATGGTC | 0.963 |
| CAGGCGACAG | 0.976 |
| CAGGCGCCTA | 1.01 |
| CAGGCGGGAT | 1.03 |
| CAGGGAGACT | 0.98 |
| CAGGGAGAGC | 0.967 |
| CAGGGATAAT | 0.979 |
| CAGGGCAAGA | 1.17 |
| CAGGGCAC | 0.984 |
| CAGGGCATTC | 1.16 |
| CAGGGCGCT | 0.955 |
| CAGGGGAGT | 1.03 |
| CAGGGGTCCA | 1.03 |

| Sequence | switch fluorescence ratio |
| --- | --- |
| CAGGGTCATC | 0.998 |
| CAGGGTGAAA | 1.11 |
| CAGGTAGTAT | 0.998 |
| CAGGTATAAC | 0.964 |
| CAGGTGCAAG | 1.18 |
| CAGGTGCGG | 1.14 |
| CAGGTGTACA | 1.04 |
| CAGGTGTTTC | 1.58 |
| CAGGTTAGTA | 0.984 |
| CAGGTTATT | 0.945 |
| CAGGTTGCCA | 1.02 |
| CAGTAAGTCA | 1 |
| CAGTATAACA | 0.983 |
| CAGTATAAGA | 0.964 |
| CAGTATGATA | 1 |
| CAGTCAGTTT | 0.978 |
| CAGTCATTGG | 1 |
| CAGTCGTTAT | 0.994 |
| CAGTCTCAGT | 0.998 |
| CAGTCTGTCG | 0.97 |
| CAGTGATGTC | 0.978 |
| CAGTGCAGAG | 0.972 |
| CAGTGCTA | 1.01 |
| CAGTGGAAAC | 1.07 |
| CAGTGGGCCT | 0.98 |

| Sequence | switch fluorescence ratio |
| --- | --- |
| CAGTGGTCCC | 0.973 |
| CAGTGTTGAG | 0.933 |
| CAGTTAAAAT | 0.987 |
| CAGTTACAC | 1.06 |
| CAGTTAGACT | 0.995 |
| CAGTTAGGAA | 1 |
| CAGTTCCGTC | 1.05 |
| CAGTTCCTAC | 0.983 |
| CAGTTCTCTT | 0.962 |
| CAGTTGTATC | 1.01 |
| CAGTTGTGCC | 1.03 |
| CAGTTTAGGT | 0.979 |
| CAGTTTCTGC | 0.956 |
| CAGTTTGACT | 1.04 |
| CAGTTTGGTA | 1.03 |
| CAGTTTTCAT | 0.964 |
| CAGTTTTTCT | 0.976 |
| CATAAAATTG | 1.01 |
| CATAAACTTT | 1.02 |
| CATAAGAACG | 1.04 |
| CATAAGCCGG | 1.06 |
| CATAAGCTTG | 1 |
| CATAATCAGC | 0.98 |
| CATACATGCG | 1.01 |
| CATACCGGTA | 0.999 |
